Laboratory results taken from PubChem BioAssay AID1030 (National Center for Advancing Translational Sciences (NCATS), 2008).
Out of some 220,000 compounds screened, about 16,000 (7.3%) were called active. The shares of active, inactive and inconclusive entries below differ from those in the screen. The call rests on the fitted dose curve; in most records, active means well fitted inhibition curve with a large enough effect (not every such curve was filed as active); inconclusive means small, poorly fitted or top-dose-only effect, or another doubt; inactive means no such curve, though single readings can be large or run the other way. Potencies of inconclusive entries are left out as doubtful fits.

Each molecule was assayed against Aldehyde dehydrogenase 1A1 (Homo sapiens) (UniProt P00352) (assay: qHTS Assay for Inhibitors of Aldehyde Dehydrogenase 1 (ALDH1A1)). Settings: Purified ALDH1A1, NADH fluorescence, propionaldehyde substrate; series mostly up to 75.3 µM.
Potency means the concentration at half of the fitted maximal effect; tags describe the fitted curve by direction and shape.

Sequence of UniProt P00352 (P00352 whole entry, looked up): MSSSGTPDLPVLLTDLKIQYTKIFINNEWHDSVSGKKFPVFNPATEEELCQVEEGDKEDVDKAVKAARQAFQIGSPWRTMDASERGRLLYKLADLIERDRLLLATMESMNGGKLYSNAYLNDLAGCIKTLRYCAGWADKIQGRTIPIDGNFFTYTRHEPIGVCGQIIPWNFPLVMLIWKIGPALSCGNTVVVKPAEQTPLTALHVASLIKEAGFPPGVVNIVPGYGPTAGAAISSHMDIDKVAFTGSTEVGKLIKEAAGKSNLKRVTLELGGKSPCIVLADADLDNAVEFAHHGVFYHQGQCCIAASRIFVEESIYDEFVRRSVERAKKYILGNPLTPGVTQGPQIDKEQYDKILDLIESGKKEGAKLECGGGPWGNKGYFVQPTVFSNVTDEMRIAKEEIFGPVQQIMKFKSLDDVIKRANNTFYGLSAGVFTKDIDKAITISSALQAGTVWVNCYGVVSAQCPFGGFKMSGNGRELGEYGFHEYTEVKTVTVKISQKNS

| SMILES | Potency |
| --- | --- |
| CCOC(=O)c1ccc(NC(=O)CNC(=O)C2CCCCC2)cc1 | inconclusive [inhibitor, partial curve] |
| COCCn1c(SCC(=O)Nc2sc(C)c(C)c2C#N)nnc1-c1ccc(OC)cc1 | inconclusive [inhibitor, single point] |
| Cc1ccc(C(=O)Nc2ccccc2C(=O)NCc2ccco2)cc1S(=O)(=O)N1CCCCC1 | inconclusive [inhibitor, partial curve] |
| Cc1ccc(S(=O)(=O)/N=C(/Nc2ccc3[nH]c(=O)[nH]c3c2)c2ccccc2)cc1 | inconclusive [inhibitor, partial curve] |
| COc1ccccc1CNC(=O)CNCC1CCCO1 (stereo not given) | inconclusive [inhibitor, single point] |
| CCCCCOC(=O)Cc1c(O)c2ccccc2[nH]c1=O | inconclusive [inhibitor, single point] |
| O=C(c1ccccc1)C(Sc1ncn[nH]1)c1ccccc1 (stereo not given) | inconclusive [inhibitor, single point] |
| CCN(C(=O)CSc1nc2nc(C)cc(C)n2n1)c1cccc(C)c1 | inconclusive [inhibitor, single point] |
| COCCn1c(SCC(=O)Nc2sccc2C(N)=O)nnc1-c1ccncc1 | inactive |
| CN(C)c1ccc(C(CNC(=O)c2ccccc2F)c2c[nH]c3ccccc23)cc1 (stereo not given) | inconclusive [inhibitor, full curve] |
| COc1ccc(-c2cc(C(=O)Nc3cc(C)nn3-c3ccccc3)no2)cc1 | inactive |
| Cc1ccc2nc(/C(C#N)=C\c3ccc(N4CCOCC4)o3)[nH]c2c1 | inconclusive [inhibitor, single point] |
| O=C(CSc1nc(O)c(Cc2ccccc2)c(=O)[nH]1)Nc1nc2c(s1)CCCC2 | inconclusive [inhibitor, single point] |
| CC(C)(C)c1[nH]nc2c1C(c1cccnc1)C(C#N)=C(N)O2 (stereo not given) | inconclusive [inhibitor, single point] |
| Cc1nc2c3cnn(-c4ccccc4)c3ncn2n1 | inconclusive [inhibitor, single point] |
| COc1ccccc1N1CCN(/N=C/C=C\c2ccco2)CC1 | inconclusive [inhibitor, single point] |
| CN1CCN(c2ncnc3ccc(-c4ccccc4C#N)cc23)CC1 | inconclusive [inhibitor, single point] |
| N#CCC(=O)Nc1ccc(C(=O)NCC(c2ccco2)N2CCCCC2)cc1 (stereo not given) | inactive |
| O=c1/c(=C/c2ccc(CNS(=O)(=O)c3ccccc3)o2)sc2n1CCN=2 | inconclusive [inhibitor, partial curve] |
| COCCCNC(=O)C(C#N)c1nc2ccccc2nc1N1CCCC1 (stereo not given) | inconclusive [inhibitor, single point] |
| Cc1ccc(S(=O)(=O)NNc2nc3ccccc3nc2C(F)(F)F)cc1 | active: 7.08 µM |
| Cc1ccc(-n2c(C)cc(C)c(C#N)c2=O)cc1Cl | inactive |
| Oc1ccccc1-c1n[nH]c(=S)n1Cc1ccco1 | inactive |
| O=C(COC(=O)c1ccccc1Sc1ccc(C(F)(F)F)cc1[N+](=O)[O-])NC(=O)NC1CCCC1 | inconclusive [inhibitor, partial curve] |
| Cc1cc(NCc2ccco2)n2c(nc3ccccc32)c1C#N | inconclusive [inhibitor, partial curve] |

| SMILES | Potency |
| --- | --- |
| Cc1cc(NC(=S)NC(=O)c2ccco2)c2ccccc2n1 | inconclusive [inhibitor, single point] |
| O=C(CSc1nncn1-c1cccnc1)N(c1ccccc1)c1ccccc1 | active: 15.8 µM |
| COC(=O)c1cc(=O)n2c(-c3ccccc3)csc2n1 | inconclusive [inhibitor, single point] |
| O=C(Cc1ccc2cccnc2c1)c1ccc(O)cc1O | inactive |
| O=C1CCC[C@@H]2CC(N3CCCCC3)C[C@@H]3CCN1[C@H]23 (stereo not given in full) | inactive |
| Cc1ccc(S(=O)(=O)NN2C(=O)c3ccccc3NC2C)cc1 (stereo not given) | inconclusive [inhibitor, single point] |
| CC(C)(C)c1cc(CN(CCO)CCO)cc(C(C)(C)C)c1O | active: 2.51 µM |
| NC(=O)C[C@@H](N)C(=O)O | inactive |
| Cc1cc(N2CCOCC2)nc2ccc(NC(=O)CCC(=O)N3CCCC(C)C3)cc12 (stereo not given) | inconclusive [inhibitor, partial curve] |
| Cc1ccc2c(Cl)cc(Cl)c(OCC(=O)Nc3ccc(C)c(S(=O)(=O)N(C)C)c3)c2n1 | inconclusive [inhibitor, partial curve, poor fit] |
| COc1ccc(/C=C2/CC/C(=C\c3ccc(OC)c(OC)c3OC)C2=O)c(OC)c1OC | inconclusive [inhibitor, single point] |
| O=C(Nc1ccc(Oc2cccc(C(F)(F)F)c2)nc1)c1ccco1 | active: 39.8 µM |
| CCC[C@@H](NS(=O)(=O)c1ccc(C)cc1)C(=O)Oc1ccc2c3c(c(=O)oc2c1)CCC3 | inconclusive [inhibitor, partial curve] |
| COc1ccc2[nH]cc(CCNc3ncnc4ccc(-c5cccnc5)cc34)c2c1 | inconclusive [inhibitor, single point] |
| O=C(Nc1cc(N2CCOCC2)ncn1)NC1(C(F)(F)F)Oc2ccc(Cl)cc2O1 (stereo not given) | inconclusive [inhibitor, single point] |
| O=C(CSc1cccc[n+]1[O-])Nc1cccc(Oc2ccccc2)c1 | inactive |
| COc1ccc(CCNC(=O)C(C)Sc2ccc(C)cc2)cc1OC (stereo not given) | inactive |
| Cc1cccc(OCCn2c(NC(=O)c3ccco3)nc3ccccc32)c1 | inactive |
| CCCCC(=O)N1CCN(c2ccc(OC)cc2[N+](=O)[O-])CC1 | inconclusive [inhibitor, full curve, poor fit] |
| CC(C)(C)c1nnc(NC(=O)Cc2ccc(Br)cc2)s1 | inconclusive [inhibitor, single point] |
| O=C(CSc1ncn(-c2ccccc2)n1)Nc1nc2ccccc2s1 | active: 12.6 µM |
| CCOC(=O)c1cnn(-c2ccccc2)c1-c1ccccc1 | inconclusive [inhibitor, single point] |
| O=C1c2ccccc2NC(c2ccc(-c3cccc([N+](=O)[O-])c3)o2)N1O (stereo not given) | active: 14.1 µM |
| Cc1cc(C)c2cc(CN(CC3CCCO3)S(=O)(=O)c3ccc4c(c3)OCCO4)c(=O)[nH]c2c1 (stereo not given) | inconclusive [inhibitor, single point] |
| CC1(C)CC(=O)c2sc(NC(=O)CN3C(=O)CCC3=O)nc2C1 | inconclusive [inhibitor, partial curve] |

| SMILES | Potency |
| --- | --- |
| CC1=C(C(=O)OC2CCCCC2)C(c2ccco2)C2=C(CC(C)(C)CC2=O)N1 (stereo not given) | inconclusive [inhibitor, single point] |
| CN(CCc1cnn(C)c1)Cc1nc(CC2CC2)no1 | inconclusive [inhibitor, single point] |
| N#CCCn1cc(C(=O)O)c(-c2cc3ccccc3o2)n1 | inconclusive [inhibitor, single point] |
| CCOC(=O)CNc1ccc2c(c1)OCO2 | inconclusive [inhibitor, single point] |
| CC(C)(C)NC(=O)CN(C(=O)c1csnn1)c1ccccc1-c1ccccc1 | inactive |
| CCN1C(=O)C(CC(=O)NC2CCCCC2)N(CC)C1=O (stereo not given) | inactive |
| CN(CC(=O)N1CCCc2c1c(=O)oc1ccc(O)cc21)Cc1ccccc1 | active: 12.6 µM |
| Nc1c(C(=O)O)cnn1-c1ccccc1 | inactive |
| CCCCNc1nc(CC)c2c(c1C#N)CCCC2 | inconclusive [inhibitor, partial curve] |
| CC(=O)OC[C@@]1(O)C[C@@]23CC[C@@H]4c5ccoc5CC[C@@]4(C)[C@@H]2CCC1C3 | inactive |
| Cn1nnnc1SCC(=O)c1ccco1 | active: 39.8 µM |
| Cn1c(-c2ccc(Br)cc2)cnc1NCc1cccnc1 | active: 10 µM |
| CN1CCC(N(C)C(=O)c2sc3cc(F)ccc3c2Cl)CC1 | inactive |
| CC/C(=N/Nc1ccccc1)c1cnnc(SC)n1 | inconclusive [inhibitor, single point] |
| S=C(Nc1ccccc1Oc1ccccc1)NC1CCCC1 | inactive |
| O=C(c1sc2ccccc2c1Cl)N1CCN(c2ncccn2)CC1 | active: 12.6 µM |
| CCC(C)NC(=O)C1CCN(C(=O)c2ccccc2)CC1 (stereo not given) | inconclusive [inhibitor, single point] |
| CC(=O)Nc1cccc(-n2nnc(SCC(=O)c3ccccc3)n2)c1 | inconclusive [inhibitor, single point] |
| Fc1ccc(/C=N/Nc2nc3ccccc3[nH]2)cc1F | inactive |
| COc1c(Br)cc2c(C)c(C(=O)O)oc2c1Br | inconclusive [inhibitor, single point] |
| Cn1c(O)c(C=NC(CC(N)=O)C(=O)O)c(=O)n(C)c1=O (stereo not given) | inactive |
| O=Cc1ccccc1OCc1nnsc1Cl | inconclusive [inhibitor, single point] |
| COc1ccc(CCNC(=O)c2cccnc2SC)cc1 | inactive |
| CC(=O)Nc1ccc(C(=O)Nc2cc(C(F)(F)F)ccc2-n2cnc3ccccc32)cc1 | inconclusive [inhibitor, single point] |
| OC(CON=C1c2ccccc2-c2ccccc21)CN1CCNCC1 (stereo not given) | inconclusive [inhibitor, single point] |
